In patent publication US6323219A, “Methods for treating immunomediated inflammatory disorders” (Ortho-McNeil Pharmaceutical, Inc., priority 1999, dated 2001):

How the values were obtained:
Yucatan swine skin [1] = test: Yucatan swine skin pigmentation, topical, visual/chromameter/histology
Yucatan swine skin [2] = test: Histology of treated Yucatan swine skin (H&E, F&M); assay type: in vivo; details: 10, 50 and 250 μM, end of experiment

## CN[C@H](Cc1ccccc1)C(=O)N1CCC[C@H]1C(=O)N[C@@H](CCCNC(=N)N)C(=O)c1nc2ccccc2s1 [Compound I]
Yucatan swine skin [1]; 0, 10, 50 and 250 μM, FIG. 9
  chromameter readings (L*) during treatment course: A saturation effect is observed, which is a time and concentration dependent
Yucatan swine skin [1]; 50 and 250 μM, by the eighth week, FIG. 8
  whitening effect of the two highest doses compared: similar
Yucatan swine skin [2]
  H&E histology: irritation, inflammation, skin architecture: no irritation, inflammatory response or changes in skin architecture
Yucatan swine skin [2]; FIG. 10
  F&M histology: pigmentation of treated samples: reduced pigmentation in the treated samples, both in the basal layer and throughout the epidermis
